# Data published in patent EP4592315A1 (Biotheus Inc., dated 2024).
# Biological target: T1, human 4-1BB (human, UniProt Q07011 24-255)
# T1 construct: whole, on cells; also called h4-1BB; CD137
# Assay: flow cytometry on CHOS-h4-1BB cells (overexpressing human 4-1BB), anti-human IgG-Fc PE
# Chain of human 4-1BB (Q07011 24-255): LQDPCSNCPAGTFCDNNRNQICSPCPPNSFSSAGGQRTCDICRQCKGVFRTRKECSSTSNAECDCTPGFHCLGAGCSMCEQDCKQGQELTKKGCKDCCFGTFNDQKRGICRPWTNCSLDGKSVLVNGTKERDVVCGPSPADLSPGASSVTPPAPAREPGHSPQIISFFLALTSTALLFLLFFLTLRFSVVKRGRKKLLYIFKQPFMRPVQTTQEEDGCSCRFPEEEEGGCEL
binder,measurement,value
"HER2x4-1BB-3 (bispecific antibody, human IgG1, kappa, also called HER2×4-1BB-3; HER2 × 4-1BB-3) heavy: EVQLVESGGGLVQPGGSLRLSCAASGFTFTDYTMDWVRQAPGKGLEWVADVNPNSGGSIYNQRFKGRFTLSVDRSKNTLYLQMNSLRAEDTAVYYCARNLGPSFYFDYWGQGTLVTVSS[left out - human IgG1 constant region]GGGAGGGGAGGGGAGGGGA[left out - about 120 residues] light: DIQMTQSPSSLSASVGDRVTITCKASQDVSIGVAWYQQKPGKAPKLLIYSASYRYTGVPSRFSGSGSGTDFTLTISSLQPEDFATYYCQQYYIYPYTFGQGTKVEIKRTVAAPSVFIFPPSDEQLKSGTASVVCLLNNFYPREAKVQWKVDNALQSGNSQESVTEQDSKDSTYSLSSTLTLSKADYEKHKVYACEVTHQGLSSPVTKSFNRGEC",EC50,10.9 nM
